Measurements taken from the RNAGym collection of RNA variant scans (doi:10.1101/gad.245936.114).
Variants at the background level are over-represented here.

B1: tRNA (parent)
chain: CUCUCGGUAGCCAAGUUGGUUUAAGGCGCAAGACUUUAAUUUAUCACUACGAAAUCUUGAGAUCGGGCGUUCGACUCGCCCCCGGGAGAUUUUUUCCUCGAGCAA

Variants of: B1
Assay: nonsense suppression (GFP-seq) (ratio to wild type); higher = more function; SUP4oc tRNA, yeast GFP reporter sort-seq
Procedure, shortened: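 To measure nonsense suppression, tRNA variants from a library carrying ~3% random mutations were integrated into the yeast genome alongside RFP and a GFP ochre reporter under galactose control. Growth took place in raffinose/galactose medium supplemented with 80 mg/L adenine, followed by sorting into GFP/RFP bins and Illumina sequencing of each bin (phred ≥30). For each variant with ≥100 reads and ≥30 cells, the bin median GFP/RFP values were weighted by its estimated cell share per bin and referenced to the unmutated parent tRNA.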
A54C U57C U63G C64G A74C gave a nonsense suppression of no more than 0.026. Work on A54C U58A yielded a nonsense suppression of 0.135. In the case of A54C U58A G69A A74U G88A, the nonsense suppression is reported as no more than 0.026. In the case of A54C U58G A74U U76C, the nonsense suppression is reported as no more than 0.026. Work on A54C U63C yielded a nonsense suppression of 0.729. In the case of A54C U63C U71A, the nonsense suppression is reported as no more than 0.026. With A54C U63G the nonsense suppression was 0.0506. Variant A54C U63G A89C has a nonsense suppression of no more than 0.026. Variant A54C U71A has a nonsense suppression of no more than 0.026. In the case of A54G A89C, the nonsense suppression is reported as no more than 0.026. A54G A89G showed a nonsense suppression of no more than 0.026. A54G C56A G61U gave a nonsense suppression of no more than 0.026. A54G C77U gave a nonsense suppression of no more than 0.026. A54G C80G showed a nonsense suppression of no more than 0.026. Variant A54G G61C has a nonsense suppression of no more than 0.026. A54G G61C G86U gave a nonsense suppression of no more than 0.026. Variant A54G G66U U71A has a nonsense suppression of no more than 0.026. In the case of A54G G67U C68A, the nonsense suppression is reported as no more than 0.026. For A54G G69C A74G G86U, the nonsense suppression was no more than 0.026. Work on A54G G73U yielded a nonsense suppression of no more than 0.026. A54G G85A showed a nonsense suppression of no more than 0.026. Variant A54G G86U has a nonsense suppression of no more than 0.026. For A54G G88U, the nonsense suppression was no more than 0.026. Variant A54G U55A has a nonsense suppression of no more than 0.026. Variant A54G U55G U58C has a nonsense suppression of no more than 0.026. A54G U63C gave a nonsense suppression of no more than 0.026. In the case of A54U A60C U71C C82A, the nonsense suppression is reported as no more than 0.026. For A54U A62C, the nonsense suppression was no more than 0.026. In the case of A54U A89C, the nonsense suppression is reported as no more than 0.026. A54U C56G gave a nonsense suppression of no more than 0.026. Work on A54U C56G U71G C80G yielded a nonsense suppression of no more than 0.026. Variant A54U C64A G78A has a nonsense suppression of no more than 0.026. A54U C79U showed a nonsense suppression of 0.571. A54U C82G showed a nonsense suppression of no more than 0.026. Variant A54U C83A has a nonsense suppression of no more than 0.026. Variant A54U C83G G84U has a nonsense suppression of no more than 0.026. With A54U G59C C82G the nonsense suppression was no more than 0.026. With A54U G61C A74G the nonsense suppression was no more than 0.026. For A54U G61U, the nonsense suppression was 1.16. A54U G65C A89G gave a nonsense suppression of no more than 0.026. A54U G69A gave a nonsense suppression of no more than 0.026. Variant A54U U57G G65C has a nonsense suppression of no more than 0.026. A54U U70A gave a nonsense suppression of no more than 0.026. Work on A54U U71C A87C yielded a nonsense suppression of no more than 0.026. Work on A54U U76A G78U yielded a nonsense suppression of no more than 0.026. With U55A A60C G61A A62C G86U the nonsense suppression was no more than 0.026. U55A A60C G61U C79U showed a nonsense suppression of no more than 0.026. In the case of U55A A60U U76C, the nonsense suppression is reported as no more than 0.026. With U55A A74C the nonsense suppression was no more than 0.026. U55A A74C G88A showed a nonsense suppression of no more than 0.026. Work on U55A C56A G66A yielded a nonsense suppression of no more than 0.026. In the case of U55A C56A U70A G84A A87C, the nonsense suppression is reported as no more than 0.026. Variant U55A C56U has a nonsense suppression of no more than 0.026. U55A C64A G86A showed a nonsense suppression of no more than 0.026. U55A C64G showed a nonsense suppression of no more than 0.026. With U55A C64U the nonsense suppression was no more than 0.026. With U55A C72G the nonsense suppression was no more than 0.026. U55A C83A gave a nonsense suppression of no more than 0.026. U55A G59A gave a nonsense suppression of no more than 0.026. U55A G59U G84U gave a nonsense suppression of no more than 0.026. U55A G61A G73A gave a nonsense suppression of no more than 0.026. In the case of U55A G61C A62G G78U, the nonsense suppression is reported as no more than 0.026. For U55A G66A C68G G69A, the nonsense suppression was no more than 0.026. In the case of U55A G69U U71A, the nonsense suppression is reported as no more than 0.026. Work on U55A G73A yielded a nonsense suppression of no more than 0.026. Work on U55A G73C C75U C79A yielded a nonsense suppression of no more than 0.026. Work on U55A G84A yielded a nonsense suppression of no more than 0.026. For U55A G85C, the nonsense suppression was no more than 0.026. In the case of U55A G88A, the nonsense suppression is reported as no more than 0.026. With U55A U57A C77A the nonsense suppression was no more than 0.026. In the case of U55A U57G G61C, the nonsense suppression is reported as no more than 0.026. Variant U55A U58G has a nonsense suppression of no more than 0.026. In the case of U55A U63C, the nonsense suppression is reported as no more than 0.026. U55A U70C gave a nonsense suppression of no more than 0.026. With U55A U70C C75A C79A the nonsense suppression was no more than 0.026. In the case of U55A U71A C79A, the nonsense suppression is reported as no more than 0.026. Work on U55A U71G yielded a nonsense suppression of no more than 0.026. U55A U76C G78U gave a nonsense suppression of no more than 0.026. With U55C A60C the nonsense suppression was no more than 0.026. With U55C A60G G61C the nonsense suppression was no more than 0.026. U55C A60U U63A G84A A87U showed a nonsense suppression of no more than 0.026. Work on U55C A87C yielded a nonsense suppression of 0.0719. Variant U55C C64A has a nonsense suppression of no more than 0.026.
